Source: PubChem BioAssay AID624296 (National Center for Advancing Translational Sciences (NCATS), 2012)
The campaign covered roughly 350,000 compounds. About 9,900 (2.8%) were called active. Inconclusive results, whose numbers are uncertain, are shown with a selection of clear calls. The call rests on the fitted dose curve; in most records, active means well fitted activation curve with a large enough effect; inconclusive means small, poorly fitted or top-dose-only effect; inactive means no such curve, though single readings can be large or run the other way. Potencies of inconclusive entries are left out as doubtful fits.

Experiment: A quantitative high throughput screen for small molecules that induce DNA re-replication in MCF 10a normal breast cells. Further: nearly all actives have a fitted effect of over 50% in size.
Conditions: MCF 10A DNA re-replication, Hoechst nuclear intensity, 48 h; series mostly up to 46.1 µM
Potency means the concentration at half of the fitted maximal effect; tags describe the fitted curve by direction and shape.

Compound | Potency
N=c1sccn1CC(=O)Nc1cc(S(=O)(=O)N2CCCCC2)ccc1Cl | inactive
COC(=O)c1ccc(CSc2nc3c(cnn3-c3ccc(F)cc3)c(=O)[nH]2)o1 | inconclusive [activator, partial curve, poor fit]
COc1ccc(N)cc1NC(=O)CN1CCCC1 | inconclusive [activator, single point]
COc1ccc(S(=O)(=O)N(C)CC(=O)NCC2CCCO2)cc1OC (centres undefined) | inconclusive [activator, single point]
CCN(CC(=O)Nc1ccc(N2CCOCC2)cc1)C(=O)Cc1ccccc1 | inactive
CCOC(=O)c1ccc(NC(=S)N(CCCN(CC)CC)Cc2ccco2)cc1 | inconclusive [activator, single point]
COc1ccccc1N1CCN(C(=S)Nc2ccc(S(=O)(=O)N3CCOCC3)cc2)CC1 | inactive
CN(c1cccc(Cl)c1)S(=O)(=O)c1cccc(C(=O)NCc2ccncc2)c1 | inactive
S=c1[nH]nc2sc3ccccc3n12 | inactive
CC(C)(C)c1ccc(-c2csc(NNC3=NCCCCC3)n2)cc1 | inconclusive [activator, single point]
COc1ccc(N(C)S(=O)(=O)c2cccc3cccnc23)c(OC)c1 | active: 8.2 µM
COc1ccc(-c2cc(=O)oc3cc(OC(=O)C4CCCCC4)c(Cl)cc23)cc1 | active: 11.6 µM
CC(C)C(O)(c1ccccc1)C(CN1CCOCC1)c1ccccc1 (centres undefined) | inactive
O=C(Cc1ccc(S(=O)(=O)N2CCOCC2)s1)N1CCN(S(=O)(=O)c2ccccc2F)CC1 | inconclusive [activator, single point]
O=C(COc1cccc2c1CCN(Cc1ccccc1F)C2=O)N1CCCCC1 | inconclusive [activator, single point]
CCOC(=O)C(=O)Nc1nnc(CCc2ccccc2)s1 | inconclusive [activator, single point]
Cc1ccc(NC(=S)NCCSc2ccc(Cl)cc2)cc1 | inconclusive [activator, partial curve, poor fit]
CC(=O)Nc1ccc(S(=O)(=O)Nc2c(C)n(C)n(-c3ccccc3)c2=O)cc1 | inconclusive [activator, single point]
COc1cc2[nH]c(=O)n(CCCCCC(=O)N3CCN(c4ccccc4)CC3)c(=O)c2cc1OC | inactive
O=c1c2cccnc2[nH]c(=S)n1CCCN1CCN(c2ccccc2F)CC1 | inconclusive [activator, partial curve, poor fit]
O=C(Nc1nnc(C2CC2)s1)c1ccc(Cl)c(S(=O)(=O)N2CCc3ccccc3C2)c1 | inconclusive [activator, partial curve, poor fit]
Cc1ccc(S(=O)(=O)NC(=NCC(=O)O)c2ccccc2)cc1 | inactive
O=C(Nc1nc2ccccc2[nH]1)C1CCN(C(=O)c2ccc(F)cc2)CC1 | inactive

Compound | Potency
COCCn1c(=O)sc2ccccc2c1=O | inconclusive [activator, single point]
COc1ccc(-c2csc3ncnc(N4CCN(c5ccccc5OC)CC4)c23)cc1 | inconclusive [activator, full curve]
Nc1ccc(Cc2nc3cc4ccccc4cc3[nH]2)cc1 | inconclusive [activator, single point]
CC1(C)Cc2cccc(OCC(=O)N3CCN(S(=O)(=O)c4ccccc4)CC3)c2O1 | inconclusive [activator, single point]
Cn1c(N)c(Br)c(-c2ccc(F)cc2)c(C#N)c1=O | inactive
CN1OC[C@@H]2CN(Cc3cc(Cl)cc(Cl)c3)[C@H](c3cccc(-c4ccccc4)c3)C[C@@H]21 | inactive
COc1ccc(CNc2ncnc(N)n2)cc1 | inconclusive [activator, single point]
C=C1CCN([C@H](C(=O)O)C(C)C)S(=O)(=O)c2ccccc21 | inconclusive [activator, partial curve, poor fit]
Cc1csc(NC(=O)CSc2nnc(-c3ccccc3)o2)n1 | inconclusive [activator, partial curve, poor fit]
N#Cc1ncc(Cc2ccccc2)nc1C#N | inconclusive [activator, single point]
COc1ccc(C(CNC(=O)C(CC(C)C)NS(=O)(=O)c2ccc(C)cc2)N2CCOCC2)cc1 (centres undefined) | inactive
Cc1cc(C)cc(Nc2nc3ccccc3c(=O)[nH]2)c1 | inconclusive [activator, single point]
CCCCn1c(NC(=O)c2ccc(Br)o2)c(S(=O)(=O)c2ccccc2)c2nc3ccccc3nc21 | active: 17.8 µM
CSc1cccc(NC(=O)Cc2ccccc2[N+](=O)[O-])c1 | inconclusive [activator, full curve, poor fit]
COc1cccc2oc(-c3ccco3)cc(=O)c12 | inconclusive [activator, single point]
CCn1c(=S)sc2c(=O)n(CC(=O)Nc3ccccc3)c(C)nc21 | inactive
CN(/N=C/c1cc(Br)cc(Br)c1O)c1cccc(C(F)(F)F)n1 | inconclusive [activator, partial curve, poor fit]
O=C(CCl)NCc1cc(-c2ccc(Cl)cc2)no1 | inconclusive [activator, single point]
COc1ccc(CC(=O)NCCc2ccc(S(N)(=O)=O)cc2)cc1 | inactive
O=C(Nc1ccccc1-c1nnc(SCc2ccccc2Cl)o1)c1ccccc1 | inconclusive [activator, partial curve, poor fit]
COc1cc(-c2nnc(CSc3nnc(N)s3)o2)cc(OC)c1OC | inactive
Cc1ccc(-c2nnn(CC(=O)N(Cc3ccccc3)C(C(=O)NC3CCCC3)c3ccncc3)n2)o1 (centres undefined) | inconclusive [activator, partial curve, poor fit]
CNC(=O)c1[nH]cnc1C(=O)Nc1cccc(OC)c1 | inconclusive [activator, single point]

Compound | Potency
CCc1nc(N2CCN(C(=O)CCl)CC2)c2c3c(sc2n1)CC(C)CC3 (centres undefined) | inconclusive [activator, single point]
CCN(CC)CCOC(=O)c1cccnc1 | inactive
Cc1ccc(N2C(=O)C3C4C=CC(CNC(=S)N5CCN(c6ccccc6)CC5)(O4)C3C2=O)cc1 (centres undefined) | inconclusive [activator, single point]
CCOc1ccc(NC(=O)CSc2nc3[nH]ncc3c(=O)n2-c2ccccc2OC)cc1 | inactive
CCOc1ccc(CCNC(=O)CN2C(=O)c3cccnc3Oc3ccc(Cl)cc32)cc1 | inconclusive [activator, partial curve, poor fit]
Cc1cccc(-c2nc(CN3CCCC(C(=O)NC4CCC(C)CC4)C3)c(C)o2)c1 (centres undefined) | inconclusive [activator, single point]
CN(CC(=O)NNC(=O)c1cccnc1)S(=O)(=O)c1cc(Cl)ccc1Cl | inconclusive [activator, single point]
Cc1ccc(S(=O)(=O)N2CCN(CC(O)CN3CCOCC3)CC2)cc1 (centres undefined) | inconclusive [activator, full curve]
Cc1cc(Cl)ccc1OCCCC(=O)OCC(=O)Nc1cccc(S(N)(=O)=O)c1 | inconclusive [activator, single point]
CC[C@@]1(C(=O)OC)N[C@H](CN(C)C(=O)c2ccc(C)cc2)[C@@H]2C(=O)N(Cc3ccccc3)C(=O)[C@@H]21 | inactive
CCCCC(=O)Oc1c(S(=O)(=O)c2ccccc2)c(C)nn1C(C)(C)C | inconclusive [activator, single point]
O=C(Nc1cccc(Cl)c1N1CCCC1)c1ccc([N+](=O)[O-])o1 | inconclusive [activator, single point]
O=S(=O)(c1ccccc1)N1N=C(c2ccc(Br)cc2)CC1c1ccco1 (centres undefined) | inconclusive [activator, single point]
CCOc1ccc(NC(=O)C(=O)NCC2CCCN2CC)cc1 (centres undefined) | inconclusive [activator, single point]
O=C(Nc1cccc([N+](=O)[O-])c1)C1C2CC/C=C\CCC21 (centres undefined) | inconclusive [activator, full curve, poor fit]
CC(C)(C)S(=O)(=O)/C(C#N)=C/c1sccc1C1OCCO1 | inconclusive [activator, full curve, poor fit]
CCCCCCCCCS(=O)(=O)Nc1cc(C)ccn1 | inconclusive [activator, partial curve, poor fit]
CCCCCCCc1nn2c(=O)cc(O)nc2s1 | inconclusive [activator, single point]
Cc1ccc(C)n1-n1c(C)nc2scc(-c3cccs3)c2c1=O | inactive
CCNc1nc(SCCOc2ccc(C)cc2)nc(N(C)C)n1 | inconclusive [activator, single point]
Cc1ccc(CS/C(Nc2ccccc2C)=C(\C#N)C(N)=O)c(C)c1 | inconclusive [activator, partial curve, poor fit]
Cc1ccc(N2C(=O)N(CC(=O)NC(N)=O)C(=O)C2C)cc1 (centres undefined) | inactive
O=C(COC(=O)Cc1ccsc1)Nc1ccc(Cl)c(S(=O)(=O)N2CCOCC2)c1 | inconclusive [activator, single point]
